Measurements reported in the supplement of paper PMC12067230.
The data scatter; read single values as rough.
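Also: [psi-pin-] Saccharomyces cerevisiae expressing SupN fusions, induced by 100 µM Cu2SO4, selected 7 d at 30 °C without adenine and uracil, scored by deep sequencing of output versus input.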

Experiment: amyloid nucleation score relative to library mode (yeast Sup35 reporter selection) (log enrichment difference); higher = more amyloid nucleation; sequences are the first 22 residues of the Bri2 peptide extended by up to 12 random residues
Details: random library (experiment): 1;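 active = nucleation score significantly above 0 at FDR 0.05; inactive = not significantly above 0 or absent from output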
With EASNCFAIRHFENKFAVETLICWYRVLSLGWGLR the amyloid nucleation score was “inactive”.
EASNCFAIRHFENKFAVETLICCSRVQMGWTKRR showed an amyloid nucleation score of 8.3.
In the case of EASNCFAIRHFENKFAVETLICGWA, the amyloid nucleation score is reported as “inactive”.
With EASNCFAIRHFENKFAVETLICFS the amyloid nucleation score was “inactive”.
EASNCFAIRHFENKFAVETLICTAWWA gave an amyloid nucleation score of 5.07.
In the case of EASNCFAIRHFENKFAVETLICEGTTVLFWGSSM, the amyloid nucleation score is reported as 8.37.
With EASNCFAIRHFENKFAVETLICIVAVPVYGKTSG the amyloid nucleation score was -0.511.
Work on EASNCFAIRHFENKFAVETLICCFNYI yielded an amyloid nucleation score of 8.26.
With EASNCFAIRHFENKFAVETLICILQLNRTVSGRT the amyloid nucleation score was “inactive”.
With EASNCFAIRHFENKFAVETLICPTGGIK the amyloid nucleation score was 1.87.
For EASNCFAIRHFENKFAVETLICPRPKGYEVQMAH, the amyloid nucleation score was “inactive”.
In the case of EASNCFAIRHFENKFAVETLICGIQWKPEGAVSA, the amyloid nucleation score is reported as “inactive”.
In the case of EASNCFAIRHFENKFAVETLICTQRRNRQCMWMA, the amyloid nucleation score is reported as “inactive”.
In the case of EASNCFAIRHFENKFAVETLICLFLCARRYIGVQ, the amyloid nucleation score is reported as 0.833.
For EASNCFAIRHFENKFAVETLICHRSMFFNARSTG, the amyloid nucleation score was 3.89.
For EASNCFAIRHFENKFAVETLICRTWLNPNWYCKK, the amyloid nucleation score was “inactive”.
For EASNCFAIRHFENKFAVETLICTSLRSRLCGHCV, the amyloid nucleation score was “inactive”.
In the case of EASNCFAIRHFENKFAVETLICGRRE, the amyloid nucleation score is reported as “inactive”.
With EASNCFAIRHFENKFAVETLICIDVTV the amyloid nucleation score was “inactive”.
In the case of EASNCFAIRHFENKFAVETLICKPNSCRCCSGRI, the amyloid nucleation score is reported as 0.224.
With EASNCFAIRHFENKFAVETLICTCG the amyloid nucleation score was “inactive”.
In the case of EASNCFAIRHFENKFAVETLICARD, the amyloid nucleation score is reported as “inactive”.
In the case of EASNCFAIRHFENKFAVETLICFYGMSSLRDAPI, the amyloid nucleation score is reported as “inactive”.
For EASNCFAIRHFENKFAVETLICRAERVSGMALGV, the amyloid nucleation score was “inactive”.
For EASNCFAIRHFENKFAVETLICFEWRRLFGSRGR, the amyloid nucleation score was 3.81.
EASNCFAIRHFENKFAVETLICVRCCSRGCGSWM gave an amyloid nucleation score of 4.57.
With EASNCFAIRHFENKFAVETLICKSDVIDSLTCPW the amyloid nucleation score was 0.706.
For EASNCFAIRHFENKFAVETLICHTMHCSFCFADG, the amyloid nucleation score was 5.34.
In the case of EASNCFAIRHFENKFAVETLICTMPNRVSNRRW, the amyloid nucleation score is reported as “inactive”.
With EASNCFAIRHFENKFAVETLICVDMRAPKGPSPY the amyloid nucleation score was 4.41.
With EASNCFAIRHFENKFAVETLICGGGLTQAGEANV the amyloid nucleation score was “inactive”.
For EASNCFAIRHFENKFAVETLICDTRAVLVSVMWP, the amyloid nucleation score was “inactive”.
In the case of EASNCFAIRHFENKFAVETLICIEVSRQRIALVI, the amyloid nucleation score is reported as “inactive”.
EASNCFAIRHFENKFAVETLICCSGLHNAEEESK gave an amyloid nucleation score of 8.27.
With EASNCFAIRHFENKFAVETLICGVSSSTCHVAVQ the amyloid nucleation score was “inactive”.
Work on EASNCFAIRHFENKFAVETLICNLRFFDVFFVPS yielded an amyloid nucleation score of 6.95.
With EASNCFAIRHFENKFAVETLICCCWSWGRNASLR the amyloid nucleation score was 4.08.
For EASNCFAIRHFENKFAVETLICRNARARACRMDC, the amyloid nucleation score was “inactive”.
EASNCFAIRHFENKFAVETLICLFSVHF showed an amyloid nucleation score of 6.57.
For EASNCFAIRHFENKFAVETLICPFKTVRLSPGAN, the amyloid nucleation score was -0.463.
In the case of EASNCFAIRHFENKFAVETLICVFCYLAKNSR, the amyloid nucleation score is reported as “inactive”.
For EASNCFAIRHFENKFAVETLICVPEGWTEGRGQL, the amyloid nucleation score was “inactive”.
For EASNCFAIRHFENKFAVETLICCEPGHRSRVASL, the amyloid nucleation score was “inactive”.
Sequence EASNCFAIRHFENKFAVETLICVSWDRSGEWCRL has an amyloid nucleation score of 0.92.
For EASNCFAIRHFENKFAVETLICYRALSLCVYFSL, the amyloid nucleation score was “inactive”.
EASNCFAIRHFENKFAVETLICFEGTAESYWIHK showed an amyloid nucleation score of 5.38.
For EASNCFAIRHFENKFAVETLICGKEVDKVWVRRV, the amyloid nucleation score was “inactive”.
EASNCFAIRHFENKFAVETLICLNDCARRVSCRC gave an amyloid nucleation score of -0.399.
Work on EASNCFAIRHFENKFAVETLICGVVCSCTRNRKA yielded an amyloid nucleation score of 7.35.
For EASNCFAIRHFENKFAVETLICWCSLLLAVQAVA, the amyloid nucleation score was “inactive”.
EASNCFAIRHFENKFAVETLICRVSFDRLHTG gave an amyloid nucleation score of 2.86.
With EASNCFAIRHFENKFAVETLICLAFEETARDVWP the amyloid nucleation score was “inactive”.
EASNCFAIRHFENKFAVETLICFVSSENNHWMTL showed an amyloid nucleation score of 3.35.
With EASNCFAIRHFENKFAVETLICGN the amyloid nucleation score was “inactive”.
For EASNCFAIRHFENKFAVETLICFYRTDPRAVGHT, the amyloid nucleation score was “inactive”.
Work on EASNCFAIRHFENKFAVETLICCNSGSYPASSET yielded an amyloid nucleation score of 8.06.
Work on EASNCFAIRHFENKFAVETLICMGDPNDNGMFKP yielded an amyloid nucleation score of 2.16.
For EASNCFAIRHFENKFAVETLICASSTMIVFGMDR, the amyloid nucleation score was 4.08.

Same assay, conditions: random library (experiment): 2
EASNCFAIRHFENKFAVETLICTV gave an amyloid nucleation score of -0.184.
With EASNCFAIRHFENKFAVETLICLTSFCILYNGKG the amyloid nucleation score was “inactive”.
In the case of EASNCFAIRHFENKFAVETLICNVRIACLSYGSL, the amyloid nucleation score is reported as “inactive”.
With EASNCFAIRHFENKFAVETLICMSYEKSSVYTEL the amyloid nucleation score was 4.14.
Work on EASNCFAIRHFENKFAVETLICARNAKTSFILHV yielded an amyloid nucleation score of -0.077.
In the case of EASNCFAIRHFENKFAVETLICNVRRE, the amyloid nucleation score is reported as 3.07.
In the case of EASNCFAIRHFENKFAVETLICGKSMYCGCNVWF, the amyloid nucleation score is reported as 0.673.
In the case of EASNCFAIRHFENKFAVETLICDKSCALEGHVW, the amyloid nucleation score is reported as “inactive”.
For EASNCFAIRHFENKFAVETLICFCR, the amyloid nucleation score was “inactive”.
With EASNCFAIRHFENKFAVETLICFVLICNI the amyloid nucleation score was 4.24.
Sequence EASNCFAIRHFENKFAVETLICHIRFSGMQCSNG has an amyloid nucleation score of 3.99.
EASNCFAIRHFENKFAVETLICTCLPEGFSVFH showed an amyloid nucleation score of 8.38.
With EASNCFAIRHFENKFAVETLICYEACL the amyloid nucleation score was 1.07.
EASNCFAIRHFENKFAVETLICVETVWNSPPSFW showed an amyloid nucleation score of 4.28.
For EASNCFAIRHFENKFAVETLICLFFFTFTENLNE, the amyloid nucleation score was “inactive”.
For EASNCFAIRHFENKFAVETLICILQFTI, the amyloid nucleation score was “inactive”.
For EASNCFAIRHFENKFAVETLICLHTALKGSMVIG, the amyloid nucleation score was “inactive”.
In the case of EASNCFAIRHFENKFAVETLICYTVKSMFLSRTP, the amyloid nucleation score is reported as “inactive”.
In the case of EASNCFAIRHFENKFAVETLICVVRSVN, the amyloid nucleation score is reported as “inactive”.
With EASNCFAIRHFENKFAVETLICVVRVLCLPNGWL the amyloid nucleation score was “inactive”.
Sequence EASNCFAIRHFENKFAVETLICVWCSSHYPSMGH has an amyloid nucleation score of 7.41.
For EASNCFAIRHFENKFAVETLICTYGECWVMVTDV, the amyloid nucleation score was “inactive”.
Work on EASNCFAIRHFENKFAVETLICKVMRFRSIGMSL yielded an amyloid nucleation score of 0.883.
Work on EASNCFAIRHFENKFAVETLICRVRKALIFKTCS yielded an amyloid nucleation score of -0.351.
In the case of EASNCFAIRHFENKFAVETLICIAPGN, the amyloid nucleation score is reported as “inactive”.
In the case of EASNCFAIRHFENKFAVETLICHEVTS, the amyloid nucleation score is reported as “inactive”.
In the case of EASNCFAIRHFENKFAVETLICVSGGMGPERHQV, the amyloid nucleation score is reported as “inactive”.
With EASNCFAIRHFENKFAVETLICLCRSLAFRHV the amyloid nucleation score was 3.99.
EASNCFAIRHFENKFAVETLICFAAKNRNYNTAC gave an amyloid nucleation score of 0.396.
Work on EASNCFAIRHFENKFAVETLICWGCWSFCAGRAA yielded an amyloid nucleation score of 7.03.
EASNCFAIRHFENKFAVETLICMNLPL showed an amyloid nucleation score of 4.54.
For EASNCFAIRHFENKFAVETLICVLQYRCNVLLRR, the amyloid nucleation score was “inactive”.
For EASNCFAIRHFENKFAVETLICYLVAGY, the amyloid nucleation score was “inactive”.
For EASNCFAIRHFENKFAVETLICWGPRHLYCRVGH, the amyloid nucleation score was “inactive”.
In the case of EASNCFAIRHFENKFAVETLICVWSFKNARVCTS, the amyloid nucleation score is reported as -0.0392.

Same assay, conditions: random library (experiment): 3
With EASNCFAIRHFENKFAVETLICLVCSYLCPVWVA the amyloid nucleation score was 5.85.
With EASNCFAIRHFENKFAVETLICYRRVRYGLNAVT the amyloid nucleation score was “inactive”.
For EASNCFAIRHFENKFAVETLICYQKRYDPWGMRR, the amyloid nucleation score was “inactive”.
For EASNCFAIRHFENKFAVETLICAPQRPCRVRAPR, the amyloid nucleation score was “inactive”.
With EASNCFAIRHFENKFAVETLICNPQNALVTLALV the amyloid nucleation score was “inactive”.
Work on EASNCFAIRHFENKFAVETLICHDHI yielded an amyloid nucleation score of 0.702.
Work on EASNCFAIRHFENKFAVETLICHFVSMPMQVREM yielded an amyloid nucleation score of 2.76.
For EASNCFAIRHFENKFAVETLICDGTALRAHMRCP, the amyloid nucleation score was “inactive”.
For EASNCFAIRHFENKFAVETLICMEQAEPRRVKRS, the amyloid nucleation score was 2.4.
For EASNCFAIRHFENKFAVETLICEVCAVSMDWW, the amyloid nucleation score was 6.05.
With EASNCFAIRHFENKFAVETLICVNLAGEFPCACL the amyloid nucleation score was 7.7.
In the case of EASNCFAIRHFENKFAVETLICCRDRECRLSMMR, the amyloid nucleation score is reported as “inactive”.
Sequence EASNCFAIRHFENKFAVETLICCEAYHPMSAWGI has an amyloid nucleation score of 3.08.
With EASNCFAIRHFENKFAVETLICVWYSNVTVKPRQ the amyloid nucleation score was “inactive”.
For EASNCFAIRHFENKFAVETLICMMWKKTQLHMAS, the amyloid nucleation score was “inactive”.
For EASNCFAIRHFENKFAVETLICRSIWHLVVSGVE, the amyloid nucleation score was “inactive”.
EASNCFAIRHFENKFAVETLICHSSLLASRTASF showed an amyloid nucleation score of 4.12.
For EASNCFAIRHFENKFAVETLICRVRLTLVMMTRM, the amyloid nucleation score was “inactive”.
In the case of EASNCFAIRHFENKFAVETLICCH, the amyloid nucleation score is reported as “inactive”.
EASNCFAIRHFENKFAVETLICNSGGLLCLSSKR gave an amyloid nucleation score of 7.64.
EASNCFAIRHFENKFAVETLICYGQSGAQRLAGF gave an amyloid nucleation score of 2.91.
For EASNCFAIRHFENKFAVETLICDQLFLQVMSGCV, the amyloid nucleation score was “inactive”.
Work on EASNCFAIRHFENKFAVETLICTLFL yielded an amyloid nucleation score of 8.66.
In the case of EASNCFAIRHFENKFAVETLICQDRCSRGFLWLC, the amyloid nucleation score is reported as “inactive”.
Sequence EASNCFAIRHFENKFAVETLICAHGGDAWRVVLW has an amyloid nucleation score of 0.0651.
For EASNCFAIRHFENKFAVETLICEQCLGHPRLVVT, the amyloid nucleation score was “inactive”.
For EASNCFAIRHFENKFAVETLICDSLWCRCGVCYI, the amyloid nucleation score was “inactive”.
